According to the RNAGym collection of RNA variant scans (doi:10.7554/elife.90254):
Read counts are not given, so values of variants with three or more changes are uncertain.

B1: LINE1-mini (parent)
chain: GGCAGAGCUCAACACAGCGUGGCAAAGUGGCUGUGGCUAGACUGCC

Variants of: B1
Assay: self-cleavage, relative activity (ratio to wild type); higher = more cleavage; in vitro, sequencing; the parent is a self-cleaving ribozyme

| Variant | self-cleavage |
| --- | --- |
| GGCAGAGCUCAAGACAUCGUGGCAAAGUGGCUGUGGCUAAACUGCC | 0 |
| GGCAGAGCUCAAGACAUCGUGGCAAAGUGGCUGUGGCUCUACUGCC | 0.01 |
| GGCAGAGCUCAAGACAGCGUGGGAAAGUGGCUGUGAAUAGACUGUC | 0.07 |
| GGCAGAGCUCAAGACAGCGAGGCAAAGGGUCUGUGGCUAGACUGGC | 0.04 |
| GGCAGAGCUCAAGACAACGUGGCCAAGUGGUUGUGGUUAGACUGAC | 0 |
| GGCAGAGCUCAAGACAGAGUGGGAAAGUGACUGUGGCUAGACUGCC | 0.06 |
| GGCAGAGCUCAAGACAGUUUGGCAAAGUGGCUGUGGCUAGACUGCC | 0.05 |
| GGCAGAGCUCAAGACAGCGUGGCAAAGUGGCUCUGCCUAGACUGCC | 0.05 |
| GGCAGAGCUCAAGACAGCGUGGAAAAGUGGAUGUGGCUAGACUGCC | 0.03 |
| GGCAGAGCUCAAGACAGCGUUGCAAAGUGGCUGUGACUAGACUGCC | 0.15 |
| GGCAGAGCUCAAGACAGUGUGGCAAAGUGGCUGUGGCUAGACUGCG | 0.22 |
| GGCAGAGCUCAAGAAAGCGUGUCUAAGUGGCUGUGGCUAGCCUGCC | 0.16 |
| GGCAGAGCUCAAGACAGCUUGGCAAAGUGGCUGUGGCUAGACUGAC | 0.12 |
| GGCAGAGCUCAAGACAGCGUGGCAAAGUGGCUUUGGCUAGACUUCC | 0.08 |
| GGCAGAGCUCAAGACAGCGUGGCAAAGUGGCUGUGGCUAGAAUGUC | 0.1 |
| GGCAGAGCUCAAGACAGCGUGGAAAAAGGGCUGUGGCUAAACUGCC | 0.03 |
| GGCAGAGCUCAAGACAGCGUGGCAAAAUGGCUGUGGCCAGACUGCC | 0 |
| GGCAGAGCUCAAGACAGCGUGGCAAAGUGUCUGUGGCUAGCCUGCC | 0.02 |
| GGCAGAGCUCAAGACAGGGUGGCAAAGUAGCUGUGGUUAGAUUGCC | 0.44 |
| GGCAGAGCUCAAGACAGCGUGUCAAAGUGACUGUGGCUAGACUGCC | 0.11 |
| GGCAGAGCUCAAGACAGCGUGGCAAAGUGACCGUGGCUAGAAUGCC | 0.08 |
| GGCAGAGCUCAAGACAGCGUGGCAAAGUGCCGGUGGCUAGACUUCC | 0.13 |
| GGCAGAGCUCAAGACACCGUGGCAAAAUGGCUGUGGCUGGACUGCC | 0 |

| Variant | self-cleavage |
| --- | --- |
| GGCAGAGCUCAAGACAGCGUGACAAAGUGGCUGUGGGUAGAAUGCA | 0.04 |
| GGCAGAGCUCAAGACAGCGUCGCAAAGCGGCUGAUGCUAGACUGCC | 0.02 |
| GGCAGAGCUCAAGACAGCGUGGCAAUGUGGCUGAGGCUAGAUUUCU | 0.04 |
| GGCAGAGCUCAAGAUAGCGUGGCAAAGUGGCUGUGGCCAGACUGCC | 0.55 |
| GGCAGAGCUCAAGAAAGCGUGGCAAAGUGGCUGUGGAUAGACUGCG | 0.03 |
| GGCAGAGCUCAAGACAGCGAGGCAAAGUGGCUGUGGUUAGACUGCC | 0.07 |
| GGCAGAGCUCAAGACAGCGUGGAAAAGUGGCUCUGGCUAGACUGCC | 0.03 |
| GGCAGAGCUCAAGACAGCGUGGCAAAAGGGCUGUGGCUAGACCGCC | 0.04 |
| GGCAGAGCUCAAGACAGCGUGGCAAAGUGGCUGUGGGUAGACUGCA | 0.01 |
| GGCAGAGCUCAAGACAGCGUGGGAAAGUCGCUGUGGCUAGACUGCC | 0.35 |
| GGCAGAGCUCAAGACAGCGUUGCAAAGUGGGUGUGGCUAGAAUGCA | 0.03 |
| GGCAGAGCUCAAGACAGCGUGGCAAAGUUGCUGUGGCUAGACUGGC | 0.03 |
| GGCAGAGCUCAAGACAGCGUGGCAAAGUGGCUGUUGGUAGACUGCC | 0.03 |
| GGCAGAGCUCAAGACAGCGUGGCAAAGUGGCUGUGGCUAGAGUGCA | 0.04 |
| GGCAGAGCUCAAGACAUCGUGGCAAAUUGGCUGUGGCUAGACUGCC | 0.12 |
| GGCAGAGCUCAAGACAGCGUGGCAAAGUGAAUGUGGCUAGACUGCC | 0.28 |
| GGCAGAGCUCAAGAAAGCGUGGCAACGUGACUCUGGCUAGACUGCC | 0.08 |
| GGCAGAGCUCAAGACAGCGUGGCAAAGUCGCUGUGGAUAGACUGCC | 0.1 |
| GGCAGAGCUCAAGACAGCGUGUCAAAGAGGCUGUGGCUAGACUGCC | 0.1 |
| GGCAGAGCUCAAGACAGCGAUGCAAAGUGGCUGUGCCUAGACUGCA | 0.02 |
| GGCAGAGCUCAAGACAGCGUGGCAAAGUGGCUUUGGCUAGACAGCC | 0.04 |
| GGCAGAGCUCAAGACAACGUGGCAAAGAGGCUGUGGCUAGACUGCC | 0.06 |
| GGCAGAGCUCAAGACAGCGUGGCAAUGUGGCUGUGGCCAGACUGCC | 0.01 |

| Variant | self-cleavage |
| --- | --- |
| GGCAGAGCUCAAGACAGAGUGGUAAAGUGGCUGUGGCUAGACUGCC | 0.07 |
| GGCAGAGCUCAAGACAGCUUGGCAAACUGGCUGUGGCUAGACUGCC | 0.02 |
| GGCAGAGCUCAAGACAGCGUGGCAAAUUGGCUGUGGCUAGAUUGCC | 0.03 |
| GGCAGAGCUCAAGACACCAUGGAAAAGUGGCUGUGGCUAGACUGCC | 0.13 |
| GGCAGAGCUCAAGACAGCGUGGCAAAGUGUCAGUGGCUAAAUUGCC | 0.02 |
| GGCAGAGCUCAAGACAGCGUGGCAAAGUGGCUGUGACUUGACUGCC | 0.05 |
| GGCAGAGCUCAAGACAGCGUGGCAAAGUCGCUGUGACUAGACUGCC | 0.06 |
| GGCAGAGCUCAAGACAGCGUGGCAAUGUGGCUAUGGCUAUACUGCC | 0.01 |
| GGCAGAGCUCAAGACAGCGUGUCACAGUGGCUGGGGCUAGACUGCC | 0 |
| GGCAGAGCUCAAGACAGCGUGGCAAAUUGGCUGCGGCUAGACUGCC | 0.05 |
| GGCAGAGCUCAAGACAGCGUAGCAAAGGUGCAGUGGCUAGACUGCC | 0.19 |
| GGCAGAGCUCAAGACAGCCUGGUAAAGUGGCUGUGGGUAGACUACC | 0.05 |
| GGCAGAGCUCAAGACAGCAUGGCAAAGUGUCUGUGGCUAGACUGCC | 0.03 |
| GGCAGAGCUCAAGACAGCGUAGCAAAGUGGCUGUGGCUAGACUGUC | 0.3 |
| GGCAGAGCUCAAGACAGCUUGCCAAAGUGGCUGUGGCUAGACUGCC | 0.22 |
| GGCAGAGCUCAAGACAGCGUCGCUAAGCCGCUGUGGCUAGAUUGCC | 0.03 |
| GGCAGAGCUCAAGACAGCGUCGCAAAAUGGCUGUGGCUAGACUGCC | 0.28 |
| GGCAGAGCUCAAGACAGCGUAGCAAAGAGCCCGUUGCUAGACUGCC | 0.02 |
| GGCAGAGCUCAAGACAGCGUGGCAAAGUGGCUGUGGCUAGAUAGCC | 0.18 |
| GGCAGAGCUCAAGACAGCUUGGCAAAGUGGCUGUGGCUCCACUGCC | 0.1 |
| GGCAGAGCUCAAGAAAACGAGGCAAAGUGGCUGUGGCUAGACUGCC | 0.02 |
| GGCAGAGCUCAAGACAGCUAGGCAAAGUGGCUGUGGCUAAACUGCC | 0.01 |
| GGCAGAGCUCAAGACAGCGUGGAUAAGUGGCUGUGGCUAGACUGCC | 0 |

| Variant | self-cleavage |
| --- | --- |
| GGCAGAGCUCAAGAAAGCGGGGCUAUGUGGCUGUGGCUAGACUGCC | 0.02 |
| GGCAGAGCUCAAGACAGCGUGGCAAAGUGGGUGUUGCUAGACUGCC | 0.07 |
| GGCAGAGCUCAAGACAGCGUGGUAAAGUGGCUGUGCCUAGACUGCC | 0.04 |
| GGCAGAGCUCAAGACAGAGUGGCAAAAUGGCUGUGGCUAGUCUGCC | 0.23 |
| GGCAGAGCUCAAGACAGCAGGGCAAAGUGGCUGUGGCUAGACUACC | 0.01 |
| GGCAGAGCUCAAGAGAGCGUGGCAAAGUGGCUGUGGCUAAACUGGC | 0.02 |
| GGCAGAGCUCAAGACAGCGUGGUAAAGUGGCUGUGGCUAGAAUGCC | 0.05 |
| GGCAGAGCUCAAGAAAGCGUAGCAGAGUGACUGUGGCUAGACUGUC | 0.03 |
| GGCAGAGCUCAAGACAGCGUGGCAAAGUGGAUGUGGCUAUACUGCC | 0.04 |
| GGCAGAGCUCAAGAUAUCUUGGCAAAGUGGCUGUGGCUAGACUGUC | 0.01 |
| GGCAGAGCUCAAGACAGCGUAGCAAAGUGUCUGUGGCUAGACUGCC | 0.11 |
| GGCAGAGCUCAAGACAGCGUGGCAAAGUUGAUGUGGCUAGACUGUC | 0.2 |
| GGCAGAGCUCAAGACAGCGUGACAAAGUGGCUCUAGCUAGACUGCC | 0.01 |
| GGCAGAGCUCAAGACAGCGUGGCAAAGUGGCUGUUGCUUGACUGCC | 0.25 |
| GGCAGAGCUCAAGACAGCCUGGCAAAAUGGCUGUGGCUAGACUGCC | 0.17 |
| GGCAGAGCUCAAGACAGCGUGGCAAAAUGGCUGUGGCUAGAGUGCC | 0.06 |
| GGCAGAGCUCAAGACAGCGUUGUAAAGUGGCUGUGGCUAAACUGCC | 0.37 |
| GGCAGAGCUCAAGACAGCGUGGCAAAGUGGCUGUGGCUCGAAUGCC | 0.04 |
| GGCAGAGCUCAAGACAGCGUGGCAAAGUGGCUGUGGCUCGAAUUCC | 0.04 |
| GGCAGAGCUCAAGACACCGUGGCAUAGUGGCUGUGGCUAGACUGGC | 0.01 |
| GGCAGAGCUCAAGACAGCGUGUCAAAUUGGCUGUGGCUAGACUGCC | 0.19 |
| GGCAGAGCUCAAGACAGCGUGGCAAUGGGGGUGUGGCUAGACAGCC | 0.01 |
| GGCAGAGCUCAAGACAGAGUCUCAAAGUGGCUUUGGCUAGACUGCC | 0.02 |

| Variant | self-cleavage |
| --- | --- |
| GGCAGAGCUCAAGACAGCGUGCCAAAGUGGCUAUGGCUAGACUGCA | 0.02 |
| GGCAGAGCUCAAGACAGCGUGGCAAAGUGUCUGUGGCUAGACUGAC | 0.32 |
| GGCAGAGCUCAAGACAGGGUGGCAAAGAGGCUGUGGCUAGAUUACC | 0.03 |
| GGCAGAGCUCAAGACAGCGUGGUAAAGUGGCUGUGGCUAGACUGAC | 0.05 |
| GGCAGAGCUCAAGACAGUGUGGCAAAGCGGCUGUGACUAGACUGCA | 0.02 |
| GGCAGAGCUCAAGACAGCGUGGUAAAGUGGCUGUGGUUAGACUGCC | 0.2 |
| GGCAGAGCUCAAGACAGCGUGGCAAAGUGGCUGUGGCUACAUUGCC | 0.13 |
| GGCAGAGCUCAAGACAGCGUGGCAAAGUGGCUGUGGCUAGUCUACC | 0.04 |
| GGCAGAGCUCAAGACAGCGAGCCUAAGUGACUGUGGCUAGACUGCC | 0.1 |
| GGCAGAGCUCAAGACAGCGUGGCAAAUUGGCUCUGGCUAGACUGCC | 0.01 |
| GGCAGAGCUCAAGACAGCGUCGCAAAGUGGCUGUGGCUAGACUACC | 0.05 |
| GGCAGAGCUCAAGACAGCGUGGCAAAGUGUCUGUUGCUAGACUGCC | 0.63 |
| GGCAGAGCUCAAGACAGCGUGGCAAAGUGCCUGUGGCGAGACUGCC | 0.02 |
| GGCAGAGCUCAAGACAGCGUGUAACAGUGGCUGUGGGUAGACUGCC | 0.01 |
| GGCAGAGCUCAAGACAUCGUGGCAAAGUAGCUGUGGCUAGACUGCC | 0.05 |
| GGCAGAGCUCAAGACAGCAUGGCAAAGGGGAUGUGGCUAGACUGCC | 0.03 |
| GGCAGAGCUCAAGACAGUGUAGUAAAGUGGCUUUGGCUAGACUGCC | 0.01 |
| GGCAGAGCUCAAGACAGUGGGGCAAAGUGGCUGUGGAUAGACCGCG | 0.08 |
| GGCAGAGCUCAAGACAGGGUGGCAAAGUGGCUGUGACUAGACUGCC | 0.05 |
| GGCAGAGCUCAAGACAGCGUGGCAAAGUGGCUGUGACUAUACUGCC | 0.28 |
